Experimental data taken from PubChem BioAssay AID662 (National Center for Advancing Translational Sciences (NCATS), 2007).
Screen size: about 71,000 compounds; about 1,800 (2.5%) were called active. Inconclusive means that the source gave no clear call. Such entries were picked first, then a sample of the others. Calls come from the whole dose curve; as a rule, active = well fitted activation curve with a large enough effect in the signal ratio, with a control signal flat (not every such curve was filed as active); inconclusive = small, poorly fitted or top-dose-only effect, or effect the other way, or a change in a side signal; inactive = flat fitted curve, though single readings scatter; the % refers to the signal ratio. Potencies of inconclusive entries are doubtful fits and often do not repeat.

Assay: Cell signaling CRE-BLA (Fsk stim); for activity change, negative = inhibition: % of control where 0% means no effect
Settings: CHO CRE-bla reporter (cAMP response element driving beta-lactamase), forskolin EC10, beta-lactamase ratio; activity change, negative = inhibition: at 38.2 µM (top of the series) unless noted
Summary of the method: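 Forskolin analogue NKH 477 at EC10 stimulated CRE-driven beta-lactamase in CHO cells alongside compound dilution series. Beta-lactamase was measured with CCF4, excitation 405 nm, emission ratio 460/530 nm.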
Potency is the fitted concentration of half-maximal effect; tags give direction and shape of the fitted curve.

Structure (SMILES) | activity change, negative = inhibition | Potency
COc1ccc(O)c(C2NC(CC(C)C)(C(=O)O)C3C(=O)N(Cc4ccccc4)C(=O)C23)c1 (configuration not stated) | inconclusive: 3.19% | 
CCc1ccccc1NC(=O)CN(C)Cc1nc(N)nc(Nc2ccccc2C)n1 | inconclusive: 2.82% | 
Cc1ccc(C(C(=O)NC2CCCC2)N(Cc2ccco2)C(=O)CCC(=O)Nc2ccccn2)cc1 (configuration not stated) |  | inconclusive: 2.51 µM [falling, full curve, poor fit]
O=C(CCCCCNS(=O)(=O)c1ccc(Br)cc1)NCCN1CCOCC1 | inconclusive: 10.5% | 
Cc1ccc(-n2nnc3c(=O)n(Cc4ccccc4C)cnc32)cc1 |  | inconclusive: 10 µM [rising, partial curve]
Fc1cccc(-c2cc3nc4c(c(N5CCC6(CC5)OCCO6)n3n2)CCCC4)c1 | inactive | 
COc1ccc(-c2cc(-c3ccccc3O)[nH]n2)cc1OC | inconclusive: -27.1% | 
COc1ccccc1OCCSc1nnc(C)n1-c1ccccc1 | inconclusive: -9.11% | 
CCCN(CCc1ccccc1)[C@H]1CCc2c(O)cccc2C1 | inactive | 
Cc1cccc(-n2c(CNC(=O)COc3ccccc3)nnc2SCC(=O)Nc2nccs2)c1 | inconclusive: 13.1% | 
COCCNC(=O)c1cc2c(=O)n(C)c3ccccc3c2n1C |  | inconclusive: 10 µM [rising, partial curve]
COc1ccc(-c2cc(C(=O)Nc3c(C)nn(Cc4ccccc4Cl)c3C)no2)cc1 | inconclusive: -10.7% | 
CCOCCCn1c(C)nc2c(c1=O)c1nc3ccccc3nc1n2CCC1=CCCCC1 |  | inconclusive: 10 µM [rising, partial curve]
COc1ccc(NC(=O)c2ccc(-n3nc(C)c[n+]3[O-])cc2)cc1 | inconclusive: -1.07% | 
O=C(CCc1nc(-c2ccccc2F)no1)NC1CCCCC1 | inactive | 
Cc1nc(NCCO)c2nc(-c3ccccc3)n(CC3CCN(C)CC3)c2n1 |  | inconclusive: 5.01 µM [rising, single point]
Cc1cc(Nc2ccc(N=Nc3ccc(O)c4ncccc34)cc2)nc(C)n1 | inactive: 0.0673% [at 7.6 µM] | 
COc1cccc(-c2cc3nc(-c4ccccc4)cc(N4CCC5(CC4)OCCO5)n3n2)c1 |  | active: 3.16 µM
O=C(c1ccc(Cl)c(F)c1F)N1CCCC1 | inactive | 
Cc1nc2cnc(Nc3ccccc3)nc2n(CCC#N)c1=O |  | inconclusive: 2.51 µM [rising, full curve, poor fit]
COc1cccc(-c2cc(NCc3ccc(OC)cc3OC)ncn2)c1 |  | inconclusive: 12.6 µM [rising, partial curve]
Nc1nc2n(n1)C(c1ccco1)CC(c1ccccc1)N2 (configuration not stated) | inconclusive: 19.9% | 
O=C(NC1CS(=O)(=O)CC1NCc1ccco1)c1ccccc1 (configuration not stated) | inactive | 
Clc1ccc(-c2nnc3sc(-c4ccc(Br)o4)nn23)cc1 | inactive | 
COc1ccc(Oc2ncc3nc(-c4cccs4)c(=O)n(Cc4cccc(OC)c4)c3n2)cc1 |  | inconclusive: 3.16 µM [rising, full curve]
COc1cccc(Nc2ncc3nc(-c4cc(F)cc(F)c4)c(=O)n(C[C@H]4CCCO4)c3n2)c1 | inconclusive: 17.9% [fluorescent] | 

Structure (SMILES) | activity change, negative = inhibition | Potency
COc1ccccc1N1CCN(C(=O)c2sc3nc(-c4ccccc4)cn3c2C)CC1 | inconclusive: 22% | 
C#CCCCC(=O)Nc1ccccc1 | inactive | 
CN1CCN(C(=O)c2cc3nc(-c4ccccc4)cc(C(F)(F)F)n3n2)CC1 | inactive | 
Cc1cccc(-c2nnc3sc(-c4ccccc4)nn23)c1 | inconclusive: 15.5% | 
c1ccc(-c2nnc(-c3ccco3)n2-c2ccccc2)cc1 | inactive | 
CC1=C(C(=O)Nc2cccnc2)C(c2cccnc2)n2nc(-c3cccs3)nc2N1 (configuration not stated) | inconclusive: 1.59% | 
CC(C)(C)n1nnnc1C(c1cccs1)N1CCCC2(CCCCC2)C1 (configuration not stated) | inactive | 
CN(CCNC(=O)C1CCN(S(=O)(=O)N2CCOCC2)CC1)CCc1ccccc1 |  | inconclusive: 15.8 µM [falling, single point]
Cc1cccc(NC(=O)CSc2nnc([C@@H]3CCCN3C(=O)OC(C)(C)C)o2)c1C |  | inconclusive: 10 µM [falling, partial curve]
CC(C)NC(=O)N1CCC2(CC1)CCN(C(=O)c1ccncc1)CC2 | inactive | 
O=C(Cn1cc2c(n1)CCCC2)Nc1cc(-c2cccc(Cl)c2)no1 | inactive | 
Cc1cc(-c2ccccc2)nc(=O)[nH]1 | inconclusive: 7.05% | 
COc1ccc(-n2nc(C(=O)Nc3ccc4c(c3)OCO4)c3ccccc3c2=O)c(OC)c1 | inconclusive: 10.1% | 
Cc1nc([N+](=O)[O-])cn1-c1nc2ccccn2c1[N+](=O)[O-] | inactive: 2.07% [at 7.6 µM] | 
Cc1ccc(-c2nnc(SCC(=O)Nc3ccccc3N3CCOCC3)o2)cc1 |  | inconclusive: 15.8 µM [rising, partial curve]
O=C(NCC1CCCO1)C1c2ccccc2C(=O)N1C1CCCCCCC1 (configuration not stated) | inconclusive: 9.99% | 
COCC(C)NC(=O)NC1(C(F)(F)F)Oc2ccc(Cl)cc2O1 (configuration not stated) |  | inconclusive: 7.94 µM [falling, partial curve, poor fit]
Cc1cccc(CNc2ncnc3ccc(-c4cccnc4)cc23)c1 |  | inconclusive: 25.1 µM [falling, single point]
COC(=O)/C=c1\sc2n(c1=O)C(C)=CC(C)(C)N=2 | inactive | 
O=C(CSc1nc2ccccc2s1)NC(=O)NCc1ccco1 | inactive | 
COc1ccc(CCNc2nc(-c3ccco3)cc(C(F)(F)F)n2)cc1OC |  | inconclusive: 12.6 µM [rising, partial curve]
CN(C)C(=O)c1ccc(-c2cncnc2NCCN2CCOCC2)cc1 | inactive | 
CC(=O)Oc1ccc(C(=O)Nc2nnc(C)s2)cc1 | inconclusive: 17% [at 7.6 µM] | 
O=C(Nc1ccccc1C(=O)NCc1ccco1)c1ccccc1 | inconclusive: 23.3% | 
COc1ccc(CC(=O)NCc2ccccn2)cc1OC |  | inconclusive: 3.98 µM [rising, single point]
COC(=O)C(CC(C)C)NC(=O)c1ccc(F)cc1 (configuration not stated) | inconclusive: 4.04% [at 7.6 µM] | 
